PubChem BioAssay AID602310 (National Center for Advancing Translational Sciences (NCATS), 2012)
Out of some 410,000 compounds screened, about 310 (0.076%) were called active. Inconclusive means that the source gave no clear call. Such entries were picked first, then a sample of the others. Calls follow the shape of the dose curve; as a rule, active = well fitted curve in the direction sought with a large enough effect; inconclusive = small, poorly fitted or top-dose-only effect; inactive = flat fitted curve, though single readings scatter. A potency beside an inconclusive call is a rough fit, not a confirmed value.

target: DNA dC->dU-editing enzyme APOBEC-3G (Homo sapiens) (UniProt Q9HC16); experiment: qHTS for Inhibitors of Vif-A3G Interactions: qHTS; details: HeLa A3G-eYFP + Vif (tagged APOBEC3G with the HIV-1 protein that degrades it), YFP fluorescence, overnight; series mostly up to 46.1 µM; also: nearly all actives have a fitted effect of over 60% in size
Sequence of UniProt Q9HC16 (Q9HC16 whole entry, looked up): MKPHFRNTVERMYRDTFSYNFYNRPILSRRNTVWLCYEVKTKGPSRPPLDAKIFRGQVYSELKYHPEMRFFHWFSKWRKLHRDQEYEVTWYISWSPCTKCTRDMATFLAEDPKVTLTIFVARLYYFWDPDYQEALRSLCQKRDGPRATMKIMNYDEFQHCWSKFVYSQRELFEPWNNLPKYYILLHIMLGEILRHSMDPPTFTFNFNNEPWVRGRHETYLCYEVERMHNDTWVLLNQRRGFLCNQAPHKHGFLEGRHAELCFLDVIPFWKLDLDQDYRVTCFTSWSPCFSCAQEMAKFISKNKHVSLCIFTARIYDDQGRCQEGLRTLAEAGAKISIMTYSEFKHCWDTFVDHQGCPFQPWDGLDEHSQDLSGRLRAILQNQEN
Procedure, shortened: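 Read-out is eYFP fluorescence (Ex 488/Em 500-530) from Vif-expressing HeLa A3G-eYFP cells; more signal means A3G escaped Vif-mediated degradation. Cells plated overnight, compound pinned in, incubated overnight at 37 deg C.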
Potency is read from the fitted curve at half-maximal effect; tags tell the direction and shape of the fitted curve.

SMILES | Potency
O=C(Cc1cccs1)NCCS(=O)(=O)N1CCN(c2ccccc2F)CC1 | inconclusive: 12.6 µM [inhibitor, partial curve]
COc1cc(/C=N/N2C(=O)CSC2=S)ccc1O | inactive
COC1=CC(=O)c2c(ccc3ncnc(N)c23)C1=O | inconclusive: 2.51 µM [inhibitor, partial curve, poor fit]
Cc1ccc(NC(=O)CSc2nc3ccccc3c3nc(CCn4cncc4C)nn23)cc1F | inconclusive: 22.4 µM [inhibitor, single point]
O=C1c2ccccc2S(=O)(=O)c2cc(C(=O)N(c3ccccn3)c3ccccn3)ccc21 | inactive
COc1cc(/C=C2\SC(=O)N(CC(=O)Nc3ccccc3F)C2=O)cc(Cl)c1O | inactive
CN(C)c1ccc(/C=C/c2ccnc3ccccc23)cc1 | active: 11.2 µM
COc1ccc(C(=O)/C=C/c2ccccc2C(F)(F)F)cc1 | inactive
O=C(COC(=O)C1CCC(=O)N1)Nc1ccc(Oc2ccccc2)cc1 (stereo unspecified) | inactive
COc1cc2c3nnc(-c4ccc(F)cc4)c-3cn(Cc3ccccc3F)c2cc1OC | inconclusive: 3.16 µM [inhibitor, full curve, poor fit]
COc1ccccc1NC(=O)CSc1nnc2c3ccccc3n(C(C)C)c2n1 | inconclusive: 3.55 µM [inhibitor, single point]
Cc1ccc(S(=O)(=O)N/N=C\c2ccccc2OCc2ccccc2)cc1 | inconclusive: 35.5 µM [inhibitor, single point]
CCn1c(=O)cc(SCC(=O)NCc2ccco2)c2ccccc21 | inconclusive: 15.8 µM [inhibitor, single point]
COc1ccc(C(=O)NCC(=O)OCC(=O)c2ccc3c(c2)OCCO3)cc1 | inactive
O=C1C(Cl)=C(Nc2cccc(O)c2)C(=O)N1Cc1ccccc1 | inconclusive: 22.4 µM [inhibitor, single point]
COc1cc(OC)c(OC)cc1C=Cc1ccc2ccccc2n1 | inconclusive: 15.8 µM [inhibitor, single point]
CCN(C(=O)CSc1n[nH]c(-c2ccc(OC)cc2)n1)c1c(N)n(Cc2ccccc2)c(=O)[nH]c1=O | inconclusive: 20 µM [inhibitor, single point]
CCOc1ccc2c(c1)C(c1ccc(C)cc1)=NNC(c1ccc(C)cc1)=N2 | inconclusive: 6.31 µM [inhibitor, full curve, poor fit]
Cc1ccc(N(C)S(=O)(=O)c2ccc(-c3cc(C)no3)s2)cc1 | inconclusive: 20 µM [inhibitor, partial curve, poor fit]
CCOC(=O)Cc1csc(NC(=O)c2sc3nc4cc(C)ccc4cc3c2N)n1 | inconclusive: 11.2 µM [inhibitor, partial curve]
O=C(/C=C/c1ccco1)NC(=S)Nc1nc(-c2ccc(Cl)cc2)cs1 | inconclusive: 3.55 µM [inhibitor, single point]
COc1ccc(S(=O)(=O)NCc2ccco2)cc1NC(=O)c1ccccc1 | inconclusive: 22.4 µM [inhibitor, single point]

SMILES | Potency
C[C@@H]1CN([C@@H](C)CO)C(=O)Cc2cc(NC(=O)Nc3ccc4c(c3)OCO4)ccc2O[C@@H]1CN(C)C(=O)NC1CCCCC1 | inconclusive: 17.8 µM [inhibitor, single point]
N#C/C(=C/c1ccc(N2CCOCC2)o1)c1nc2ccccc2[nH]1 | inconclusive: 2.82 µM [inhibitor, partial curve, poor fit]
COc1ccc(/C=C(/C(=O)c2cccs2)N2C=CC=CC2=C(C#N)C#N)cc1 | inconclusive: 15.8 µM [inhibitor, partial curve, poor fit]
CC(=O)NC(c1cc(Cl)c2ccccc2c1O)C(C)C (stereo unspecified) | inconclusive: 25.1 µM [inhibitor, single point]
Cc1ccc2cc(CN(Cc3ccc(F)cc3)Cc3nnnn3C3CCCC3)c(=O)[nH]c2c1 | inactive
COc1ccc2[nH]c(=O)c(CN(CC3CCCO3)C(=O)Nc3ccccc3OC)cc2c1 (stereo unspecified) | inconclusive: 35.5 µM [inhibitor, single point]
COc1ccc(-c2cc3ccccc3oc2=O)cc1NC(=O)c1ccc([N+](=O)[O-])o1 | inconclusive: 12.6 µM [inhibitor, single point]
O=C(CSc1nnc(CNC(=O)c2ccccc2)n1-c1cccc(Cl)c1)Nc1ccccc1F | inactive
CCOC(=O)c1c(C)oc2nc(C)nc(N3CCN(c4ccccc4)CC3)c12 | inactive
COc1ccc(NS(=O)(=O)c2cc(NC(=O)c3cccs3)ccc2N2CCOCC2)cc1 | inconclusive: 10 µM [inhibitor, partial curve]
O=C(NCC1OCCc2ccccc21)c1ccc(NC(=O)c2ccc(Cl)cc2)cc1 (stereo unspecified) | inconclusive: 5.01 µM [inhibitor, full curve]
CCOC(=O)c1cnc2ccc(C)cc2c1NCCO | inactive
S=C(NCC1CCCO1)N1CCN(Cc2ccccc2)CC1 (stereo unspecified) | inactive
COc1cc(/C=C2/C(=O)N(C)C(=S)N2C)ccc1OCc1cccc(F)c1 | inconclusive: 5.62 µM [inhibitor, single point]
Cn1cc(CN2CCCC(C(=O)c3cc(F)ccc3F)C2)c2ccccc21 (stereo unspecified) | inactive
Cc1ccc(-n2sc3cc(F)ccc3c2=O)c(C)c1 | inconclusive: 35.5 µM [inhibitor, single point]
COc1ccc(C(=O)Nc2ccc(O)c3ccccc23)cc1 | inconclusive: 28.2 µM [inhibitor, single point]
COc1ccc(OC)c2[nH]c(C(=O)N/N=C/c3ccccc3O)cc12 | inconclusive: 3.55 µM [inhibitor, full curve, poor fit]
Cc1c(C(=O)c2no[n+]([O-])c2C(=O)c2cnn(C)c2C)cnn1C | inconclusive: 35.5 µM [inhibitor, single point]
CC(=O)Nc1ccc(CNc2nc(NC(C)C)nc3cc(-c4ccccc4)sc23)cc1 | inconclusive: 35.5 µM [inhibitor, single point]
CCn1cc(C(=O)O)c(=O)c2cc(F)c(N3CCN(C(=S)Nc4ccccc4OC)CC3)cc21 | inactive
O=C(Cn1nc(-c2ccccc2)ccc1=O)NCCCN1CCOCC1 | inactive

SMILES | Potency
Cc1ccc2[nH]c(=O)c(CN(Cc3ccco3)C(=O)c3ccncc3)cc2c1 | inconclusive: 7.94 µM [inhibitor, partial curve, poor fit]
NC(=O)CCCn1c(C(=O)c2ccc(Cl)cc2)c2ccc([N+](=O)[O-])cc2[n+]1[O-] | inconclusive: 12.6 µM [inhibitor, single point]
CCOc1ccccc1NC(=O)c1c(NC(=O)COc2ccccc2)sc2c1CCCCC2 | inconclusive: 0.562 µM [inhibitor, full curve, poor fit]
CCOC(=O)c1c(C)[nH]c(C(=O)N/N=C/c2ccc(OC)c(OC)c2)c1C | inconclusive: 1.26 µM [inhibitor, partial curve, poor fit]
CC1(C)CC(=O)C(C=Nc2cccnc2/N=C/C2=C(O)CC(C)(C)CC2=O)=C(O)C1 | inconclusive: 35.5 µM [inhibitor, single point]
O=C(Cn1c(=O)n(Cc2ccccc2)c(=O)c2sc3ccccc3c21)NCc1ccccc1Cl | inactive
CCCn1nc(C(=O)N2CC(=O)Nc3ccccc32)c2ccccc2c1=O | inconclusive: 8.91 µM [inhibitor, partial curve, poor fit]
O=C(N/N=C\c1c(O)ccc2ccccc12)c1ccc(Cn2cccn2)o1 | inactive
S=C(Nc1ccc(Br)cc1)NC1CCCCC1 | inactive
CC1CCCCC1NC(=O)/C(C#N)=C/c1ccccc1F (stereo unspecified) | inconclusive: 35.5 µM [inhibitor, single point]
CN1CCc2c(sc3c2C(=O)NC(c2ccc(-c4ccc(Cl)cc4)o2)N3)C1 (stereo unspecified) | inconclusive: 35.5 µM [inhibitor, single point]
Cc1c(C(=O)N2CC[C@@H](N3CCC(O)CC3)[C@H](O)C2)[nH]c2ccc(Cl)cc12 | inactive
CC(=O)N(\C=C/C=C/C=C1\Sc2ccccc2C1=O)c1ccccc1 | inconclusive: 25.1 µM [inhibitor, single point]
CC(CCc1ccc(O)cc1)NC(c1ccccc1)c1ccc(Cl)cc1 (stereo unspecified) | inconclusive: 35.5 µM [inhibitor, single point]
CCOc1ccc(N(CC(=O)Nc2cc(Cl)ccc2C)S(C)(=O)=O)cc1 | inconclusive: 10 µM [inhibitor, partial curve]
COc1cc(NC(=O)c2sc3nc(C)nc(N4CCOCC4)c3c2C)cc(OC)c1OC | inconclusive: 22.4 µM [inhibitor, single point]
COCC(=O)Nc1sc2c(c1C(=O)OC)CCCC2 | inactive
CCOC(=O)/C=c1\s/c(=C\c2ccc3cc(OC)ccc3c2)c(=O)n1CC(=O)NCC1CCCO1 (stereo unspecified) | inconclusive: 3.16 µM [inhibitor, single point]
COc1cc(-c2onc3ccc(Br)cc23)cc(OC)c1OC | inconclusive: 0.562 µM [inhibitor, full curve, poor fit]
CCOc1ccc(-c2cn(-c3cccc(SC)c3)c(=O)[nH]2)cc1 | inconclusive: 15.8 µM [inhibitor, single point]
CCOC(=O)C1CCCN(C2=NC(=O)/C(=C/c3ccc(N(C)C)cc3)S2)C1 (stereo unspecified) | inconclusive: 22.4 µM [inhibitor, single point]
COc1cccc(-n2cc(CNCc3cn(C)nc3-c3ccccc3F)cn2)c1 | inactive
